Measured values published in PubChem BioAssay AID1645886 (National Center for Advancing Translational Sciences (NCATS), 2021).
Several values for one entry are separate records, joined by “and”; a condition that tells them apart may be missing. Equal values may be shown once. Hit rate of the full screen: of about 16,000 compounds, about 260 (1.6%) were called active. Inconclusive results, whose numbers are uncertain, are shown with a selection of clear calls. Calls come from the whole dose curve; as a rule, active = well fitted inhibition curve with a large enough effect; inconclusive = small, poorly fitted or top-dose-only effect; inactive = no such curve, though single readings can be large or run the other way. Potencies beside an inconclusive call are fits to weak or partial responses and may not hold up.

Each compound was assayed against Rap guanine nucleotide exchange factor 4 (Homo sapiens) (UniProt Q8WZA2) (assay: Validation qHTS for antagonist of cAMP-regulated guanine nucleotide exchange factor 4 (EPAC2)). Settings: EPAC2 Rap1B BODIPY-GDP exchange, fluorescence; activity, negative = inhibition: at 112 µM (top of the series).
Chain of UniProt Q8WZA2 (Q8WZA2 whole entry, looked up): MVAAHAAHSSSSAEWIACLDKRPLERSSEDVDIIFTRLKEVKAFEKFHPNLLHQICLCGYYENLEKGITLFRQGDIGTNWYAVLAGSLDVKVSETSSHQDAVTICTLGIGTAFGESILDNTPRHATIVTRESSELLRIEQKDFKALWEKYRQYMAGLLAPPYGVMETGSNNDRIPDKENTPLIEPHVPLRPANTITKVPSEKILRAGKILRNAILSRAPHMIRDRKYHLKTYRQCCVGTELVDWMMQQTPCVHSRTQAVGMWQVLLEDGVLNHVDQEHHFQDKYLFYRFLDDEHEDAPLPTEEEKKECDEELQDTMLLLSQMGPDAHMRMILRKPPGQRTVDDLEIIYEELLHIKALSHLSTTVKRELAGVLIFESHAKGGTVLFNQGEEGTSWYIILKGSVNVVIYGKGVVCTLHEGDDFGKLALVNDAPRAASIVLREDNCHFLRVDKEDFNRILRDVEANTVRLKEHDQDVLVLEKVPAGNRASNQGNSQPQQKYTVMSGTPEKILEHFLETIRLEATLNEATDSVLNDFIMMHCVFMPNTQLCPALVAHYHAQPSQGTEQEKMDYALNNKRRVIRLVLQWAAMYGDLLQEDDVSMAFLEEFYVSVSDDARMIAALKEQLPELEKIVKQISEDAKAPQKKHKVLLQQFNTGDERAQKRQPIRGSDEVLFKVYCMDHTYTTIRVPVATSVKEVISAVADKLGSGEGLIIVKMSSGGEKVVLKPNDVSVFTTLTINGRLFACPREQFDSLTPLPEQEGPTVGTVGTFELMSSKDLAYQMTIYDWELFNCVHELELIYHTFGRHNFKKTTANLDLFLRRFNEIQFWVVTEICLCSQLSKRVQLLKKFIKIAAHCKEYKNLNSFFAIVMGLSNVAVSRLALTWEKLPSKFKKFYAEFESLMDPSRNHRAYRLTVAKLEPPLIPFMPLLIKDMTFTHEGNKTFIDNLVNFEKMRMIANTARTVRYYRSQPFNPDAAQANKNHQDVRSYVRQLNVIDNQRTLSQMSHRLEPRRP
How it was run: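 Normalized against a 6.5 mM cAMP agonist control, compounds were tested on 100 nM EPAC2 exchanging Rap1B-bound BODIPY-GDP (250 nM) for 50 uM GDP. Fluorescence drop (ex 480, em 540 nm) was tracked at room temperature over 30 min at 5-min intervals.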
Note: nearly all actives have a fitted effect of over 40% in size.
Potency is the fitted concentration of half-maximal effect; tags give direction and shape of the fitted curve.

Row | SMILES | Potency | activity, negative = inhibition
1 | C[N+]1(C)CCc2cc3c(cc2[C@@H]1[C@@H]1C(=O)Oc2c1ccc1c2OCO1)OCO3 | inconclusive: 89.1 µM [inhibitor, single point] | 
2 | O=C(N[C@H]1CCC(=O)N(CCSc2ccc(Br)cc2)CC1)OCc1ccccc1 |  | inconclusive: -33.6% [inhibitor]
3 | Cc1cc(C(=O)NCc2nc(-c3cccc(NC(=O)c4cc(C)oc4C)c3)oc2C)nc(C)n1 | inactive | 
4 | CC(C)=CCC1C(=O)N(c2ccccc2)N(c2ccccc2)C1=O | inconclusive: 100 µM [inhibitor, partial curve, poor fit] | 
5 | CS(=O)(=O)NC(=O)CCC/C=C\C[C@H]1C(=O)C[C@@H](O)[C@@H]1/C=C/[C@H](O)COc1ccccc1 | inactive | 
6 | Cc1ccc(CN2CCc3nnc(C(NC(=O)c4ccoc4)C(C)C)n3CC2)cc1C (stereo unspecified) | inconclusive: 56.2 µM [inhibitor, partial curve, poor fit] | 
7 | CN(C)c1ccc(C(=O)N2CCCC(Cn3cc(C(=O)N4CCCC4)nn3)C2)cc1 (stereo unspecified) | inconclusive: 89.1 µM [inhibitor, partial curve, poor fit] | 
8 | N[C@@H](CSCCCO)C(=O)O | inactive | 
9 | C/C=C/c1ccc2oc(-c3ccc(O)cc3)c(C)c2c1 | inconclusive: 11.2 µM [inhibitor, partial curve, poor fit] | 
10 | CC1(C)SC2C(NC(=O)Cc3ccccc3)C(=O)N2C1C(=O)O (stereo unspecified) | inactive | 
11 | O=C1[C@H](Cc2ccccc2)NCCCC[C@@H](c2ccco2)N1Cc1ccccc1 | inconclusive: 12.6 µM [inhibitor, full curve] | 
12 | COC(=O)C1=C(C)NC(C)=C(C(=O)OC(C)C)C1c1cccc2nonc12 (stereo unspecified) | active: 50.1 µM and inconclusive: 5.01 µM [inhibitor, partial curve, poor fit] | 
13 | CCc1cc2c(c(CC)n1)CCC(=O)N2Cc1ccc(-c2ccccc2-c2nn[nH]n2)cc1 | inconclusive: 79.4 µM [inhibitor, partial curve, poor fit] | 
14 | COc1ccccc1-c1cc(NCc2cccc(C)c2)ncn1 | inconclusive: 63.1 µM [inhibitor, partial curve] | 
15 | CC(C)(CO)Cc1cc(C(C)(C)C)c(O)c(C(C)(C)C)c1 | active: 56.2 µM and inconclusive: 50.1 µM [inhibitor, partial curve, poor fit] | 
16 | C#CCN(C)CCCOc1ccc(Cl)cc1Cl | inconclusive: 56.2 µM [inhibitor, partial curve, poor fit] | 
17 | CC(C)NC(=O)N1CC2(CCN(C(=O)c3cc(C(F)(F)F)cc(C(F)(F)F)c3)CC2)C1 | inconclusive: 89.1 µM [inhibitor, single point] | 
18 | CCCCCCCCCCCCCCSCC(=O)O | inconclusive: 44.7 µM [inhibitor, partial curve] and inconclusive: 17.8 µM [inhibitor, full curve] | 
19 | C(=C\c1ccnc2ccccc12)/c1ccc2ccccc2n1 | inconclusive: 70.8 µM [inhibitor, partial curve] | 
20 | O=C(O[C@H]1[C@H](Cc2ccccc2)NS(=O)(=O)[C@H]2C[C@@H]3C=C[C@]12O3)c1ccc([N+](=O)[O-])cc1 | inconclusive: 70.8 µM [inhibitor, partial curve, poor fit] | 
21 | COc1cc(-c2noc(C)c2/C=C/c2ccc(OC(C)=O)cc2)cc(OC)c1OC | inconclusive: 14.1 µM [inhibitor, partial curve, poor fit] | 

Row | SMILES | Potency | activity, negative = inhibition
22 | COc1ccccc1N1CCN(CCCNc2cc(=O)n(C)c(=O)n2C)CC1 | inconclusive: 4.47 µM [inhibitor, full curve, poor fit] | 
23 | CN(C)c1ccc(/C=C/c2cc3ccccc3cn2)cc1 | inconclusive: 17.8 µM [inhibitor, full curve] | 
24 | CN(C)CCCn1cc(C2=C(c3c[nH]c4ccccc34)C(=O)NC2=O)c2ccccc21 | inconclusive: 79.4 µM [inhibitor, partial curve] | 
25 | COc1cc(CN2CCOc3ccc(CN4CCC(O)(c5cccnc5)CC4)cc3C2)cc(OC)c1 | inactive | 
26 | COc1ccc(S[C@@H]2C[C@@H](C(=O)Nc3ccc4nccnc4c3)N(C3Cc4ccccc4C3)C2)cc1 | inactive | 
27 | C#C[C@]1(OC(C)=O)CC[C@H]2[C@@H]3CCC4=C/C(=N/O)CC[C@@H]4[C@H]3CC[C@@]21CC | inconclusive: 50.1 µM [inhibitor, single point] | 
28 | O=c1c2ccccc2nc2n1CCc1c-2[nH]c2ccccc12 | inconclusive: 39.8 µM [inhibitor, single point] | 
29 | CC(C)CCC[C@@H](C)[C@H]1CC(=O)C2=C3CC[C@H]4C[C@@H](O)CC[C@]4(C)[C@H]3CC[C@@]21C | inactive | 
30 | O=C(O)CCCCC1CCSS1 (stereo unspecified) | inconclusive: 0.501 µM [inhibitor, full curve, poor fit] | 
31 | C=CCN1c2ccc(Br)cc2C(=O)CS1(=O)=O | inconclusive: 89.1 µM [inhibitor, single point] | 
32 | COc1cccc(CN2C(=O)NC(C)(C3CCN(Cc4cnn(C)c4C)CC3)C2=O)c1OC (stereo unspecified) | inconclusive: 100 µM [inhibitor, single point] | 
33 | CC(C)=CCC/C(C)=C/CC/C(C)=C/CC/C(C)=C/CO | inactive | 
34 | COc1ccc(CN2CCOc3ccc(C(O)c4cccnc4)cc3C2)cc1O (stereo unspecified) | inconclusive: 89.1 µM [inhibitor, partial curve, poor fit] | 
35 | CCN(CC)S(=O)(=O)c1ccc(C(=O)O)cc1 | inconclusive: 11.2 µM [inhibitor, partial curve] | 
36 | CCn1nc(C)cc1C(=O)NCC1Cc2cc(C)cc(-c3ccccc3C(=O)OC)c2O1 (stereo unspecified) | inconclusive: 3.16 µM [inhibitor, full curve, poor fit] | 
37 | CNC(C)C#Cc1c(-c2cc(OC)c(OC)c(OC)c2)noc1C (stereo unspecified) | inconclusive: 89.1 µM [inhibitor, single point] | 
38 | COc1c(O)cc2oc3cc(O)c(CC=C(C)C)c(O)c3c(=O)c2c1CC=C(C)C | inconclusive: 56.2 µM [inhibitor, partial curve] and inconclusive: 56.2 µM [inhibitor, partial curve, poor fit] | 
39 | COc1ccccc1CNc1ccnc(-c2cccc(C#N)c2)n1 | inconclusive: 56.2 µM [inhibitor, partial curve, poor fit] | 
40 | COc1cc(-c2noc(C)c2C(=O)NCCO)cc(OC)c1OC | inconclusive: 100 µM [inhibitor, single point] | 
41 | CN1C(=O)CN2CCc3ccccc3C2c2cc(Cl)ccc21 (stereo unspecified) | inactive | 
42 | CCCCC[C@H]1CN(C2CCCCC2)C(=O)[C@@H]1CC(=O)NCc1ccccc1 | inconclusive: 6.31 µM [inhibitor, partial curve, poor fit] | 

Row | SMILES | Potency | activity, negative = inhibition
43 | CC(=O)Nc1ccc(SC[C@H](C)CN2CC[C@H](C(C)(C)C)CCC2=O)cc1 | active: 56.2 µM | 
44 | COc1ccc(NC(=O)N2CC3(CCN(S(C)(=O)=O)CC3)C2)cc1 | inconclusive: 56.2 µM [inhibitor, partial curve, poor fit] | 
45 | CCOc1cc(N)c(Cl)cc1C(=O)NCC1CN(Cc2ccc(F)cc2)CCO1 (stereo unspecified) | inactive | 
46 | Cc1cccc(Nc2ccccc2C(=O)O)c1C | inconclusive: 39.8 µM [inhibitor, partial curve, poor fit] | 
47 | COc1ccc(/C=C/C(=O)c2cc(O)ccc2O)cc1 | inconclusive: 50.1 µM [inhibitor, partial curve, poor fit] | 
48 | Nc1ccc(/C=C/c2ccc(N)cc2S(=O)(=O)O)c(S(=O)(=O)O)c1 | inconclusive: 89.1 µM [inhibitor, single point] | 
49 | CN(CCOc1ccc(C[C@H](Nc2ccccc2C(=O)c2ccccc2)C(=O)O)cc1)c1ccccn1 | inconclusive: 79.4 µM [inhibitor, partial curve] | 
50 | OC1CCC2Cc3ccccc3N=C12 (stereo unspecified) | inactive | 
51 | COC(=O)N1CCC[C@@]2(CCN(C(=O)Nc3cccc(C#N)c3)C2)C1 | inconclusive: 31.6 µM [inhibitor, single point] | 
52 | N#Cc1cccc(-c2nccc(NCc3ccccc3)n2)c1 | inconclusive: 56.2 µM [inhibitor, partial curve] | 
53 | CCOC(=O)N(C(=O)c1ccccc1)c1ccccc1 | inconclusive: 79.4 µM [inhibitor, single point] | 
54 | CC1(C)CCC(C)(C)c2cc(C(=O)Nc3ccc(C(=O)O)cc3)ccc21 | inconclusive: 39.8 µM [inhibitor, partial curve] | 
55 | COC(=O)C1=C(C)NC(C)=C(C(=O)OCC(C)C)C1c1ccccc1[N+](=O)[O-] (stereo unspecified) | inconclusive: 1.78 µM [inhibitor, full curve, poor fit] | 
56 | CCCN=C(N)NCCC[C@H](N)C(=O)O | inactive | 
57 | CCCCN(CCC(=O)O)c1ccc(/C=C/c2ccnc3ccccc23)cc1 | inactive | 
58 | COc1cc(-c2c(-c3ccc4c(c3)OCO4)noc2-c2ccsc2)ccc1F | inconclusive: 100 µM [inhibitor, single point] | 
59 | O=C(c1ccco1)N1CCC2(CC1)CN(c1ccccc1)C2 | inconclusive: 25.1 µM [inhibitor, partial curve, poor fit] | 
60 | CC(C)(C)CC(C)(C)N=C1Nc2ccccc2NC12C[C@H]1CCC(=O)N3CC[C@@H](C2)[C@@H]13 (stereo partly specified) | inconclusive: 0.158 µM [inhibitor, full curve, poor fit] | 
61 | O=C(Nc1cccc(F)c1)N1CC2(CCN(C(=O)c3cc(C(F)(F)F)cc(C(F)(F)F)c3)CC2)C1 | inconclusive: 56.2 µM [inhibitor, partial curve, poor fit] | 
